Laboratory results as given in PubChem BioAssay (NCI).
Some structures have more than one record in an assay (separate samples or runs), and their calls can disagree.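 Values shown are percent growth following 48 h exposure of cells in 96-well plates to a single concentration of compound; below 10 was considered active.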 The source holds more than one record for some entries. Only these are listed. The source may hold further records. The screen tested this drug many times, at the concentration stated with the values; one value stands for one run. Marks such as (2×) give the number of equal values in this list.

Tested on: BT-549 breast
Assay: NCI-60 one-dose screen, 48 h (100 = growth as untreated, 0 = no growth, -100 = all killed)
Settings: 0.25 µM

COc1cccc2c1C(=O)c1c(O)c3c(c(O)c1C2=O)C[C@@](O)(C(=O)CO)C[C@@H]3OC1CC(N)C(O)C(C)O1 (stereo not given in full)
growth (runs of 2008): inactive: 43.1, 62.9, 28.5, 60.6, 47.3, 50.4, 62, 61.2, 48.6, 70.1, 12.8, 45.3, 42.4, 34.2, 48.1, 11.2, 25.6, 35.5, 36.4, 23.3, 35, 40.6, 26.9, 45.6, 112, 51.4, 27, 12.5, 20.8, 16.2, 10.9, 45.4, 11.5, 33, 47.4, 58.6, 42.3, 67.4, 25.9, 53.8, 50.1, 66.9, 44.4, 36, 27.1, 35.6, 43.4, 68.4, 56.4, 54.4% and active: -14.7%, -6.23%, 9.69%
growth (runs of 2009): inactive: 46.7, 51.9, 48.3 (3×), 62.6, 57.7, 67.9, 41.7, 59.3, 59.9 (2×), 42.4, 57.4, 49.1, 59.6, 73.2, 54, 63.7, 37.4, 36.5, 43.6, 69.6, 50.3, 66, 44.2, 60, 51.2, 40.6, 10.4, 29.6, 50.8, 39.7, 52.5, 63.3, 61.8, 81.3, 47.3 (2×), 43.7, 54.2, 79, 53.9, 58.1, 40.2, 51.3, 42, 58.6, 48.5, 18.9, 64, 39.4, 61.5, 53.1, 62.7, 40, 61.7, 78.4, 45.6% and active: 6.38%, -2.31%, 8.75%
growth (runs of 2010): inactive: 40.6, 65.1, 63.1 (2×), 56.2, 54.4, 55.9, 58.1, 75, 67.2, 65.9, 63.7, 68, 70.4, 67.9, 57.4 (2×), 52.5, 73.7, 54.6, 60.3, 73.2, 59.9, 82, 56.4, 89.4, 49.3 (2×), 54.7, 44.5, 53, 50.9, 52.8, 45.1, 61.8, 52.6, 72.7, 65.3 (2×), 58.6, 57.6, 56.5, 55.5, 59, 51.5, 61.1, 58.3%
growth (runs of 2011): inactive: 69.9, 63.3, 41.2, 50.3, 64.6, 56.5, 49.6, 56.9, 65.9, 63.2, 57.1, 62.3, 62.1, 69.4, 51.7, 65.6, 67.5 (2×), 65.7, 68.8, 71.6, 66.9, 75.2, 71.4, 74, 64, 66.4, 45.5, 62.6, 61.1, 63.6, 54.6, 55.4, 56, 43.3, 58.8, 47.1, 51.9, 49.2, 21.5, 19.6, 30.2, 41.7, 26.4, 14.2, 35.4, 60.3, 50.9, 55.1, 58.5, 49.1, 44, 42.9, 53, 45, 64.7, 54.5%
growth (runs of 2012): inactive: 61.8, 40.4, 51.2, 44.4, 53.8, 55.8, 51.3, 65.3 (2×), 58.3, 40.2, 47.3, 46.2, 39.8, 49, 38.2, 45, 36.9, 49.7, 45.5, 31.4, 35.7, 35.9, 34.3, 43.2, 52.4, 56.8, 56.7, 56.4, 58.6, 52.3, 49.8, 43.7, 49.2, 53.6, 48.6, 47, 62.3, 65.5, 43.5, 76.2, 62.2, 58.2, 74.8, 78.5, 65.4, 73.1, 74.5, 66.7, 69, 86, 79.7, 86.4, 80.8, 83.6, 75.7, 64, 69.5, 68.8, 64.5, 74.4, 30, 66.2, 68.5, 51.9, 55.7, 60.7, 61.1, 45.9%
growth (runs of 2013): inactive: 54, 53.7, 61.8, 66.6, 67.6, 65.4, 61.2, 72.4, 60.4, 66.7, 76, 66.2, 64.1, 70.7, 61.7, 74.7, 70, 70.1, 69.6, 68.3, 60.1, 63, 41.6, 83.4, 78.5, 80.1, 76.4, 80.9, 68.1, 71.9, 57.3, 72, 85.9, 68.7 (2×), 78.8, 84.1, 73.9, 69.8, 58.3, 69.7 (3×), 62.6, 62.9, 65.2, 67.2, 57.4, 65.1, 74.5, 68.4, 75.2, 64.6, 72.1, 73.6, 79.3, 71, 81.1, 55.5, 65, 56.1, 49.7, 59, 62.3, 71.2, 40.5, 56.2 (2×), 38.5, 34.8, 35.5, 29.9% and active: -3.04%
growth (runs of 2014): inactive: 40.7, 32.3, 35.3, 20.5, 48.2, 28.6, 40.4, 26.2, 36.6, 81.9, 56.4, 58.8, 29.7, 55.1, 53.8, 45.9, 63.7, 61, 56.9, 57.4 (2×), 68.6 (2×), 75.7, 55.3, 56.3 (2×), 57.1, 55.6, 57.8, 53.2, 52.8, 66.9, 38, 57, 51.2, 54.4, 53.1 (3×), 55.9 (3×), 52.6 (2×), 57.2, 56.5, 50.4, 49.5, 53.9, 51.4, 56.1, 58.1, 52.9, 58.7 (2×), 53.5, 51.1, 54.2, 47 (2×), 45.8, 67.6, 59.6, 60.9, 59.8, 52.7% and active: 9.99%
growth (runs of 2015): inactive: 54.5 (3×), 44.7, 37.6 (2×), 35.6, 46.2, 56.7, 52.7, 57 (2×), 43.5 (2×), 64.8, 60.3 (3×), 65.2, 69.2, 56.1, 51.4 (2×), 51.1, 48.3 (2×), 44.4, 41.1 (2×), 54.3, 58.6, 66.3, 75.1, 69.4, 42.8, 52 (2×), 47 (2×), 51.2, 57.8, 53.8, 45.9, 55.2 (2×), 60.6, 53.7, 44, 56.4, 54.8, 42, 50.4, 63.1, 45.7, 45.4, 54.2, 61.2, 78.5, 62.8, 55.8, 38.9, 49.8, 62, 53.9, 57.4, 59.3, 58.1, 58.4, 57.9, 60.1 (2×), 67.8, 58.3, 43.6, 63.2 (2×), 61.7, 39.4, 64.6, 67.3%
growth (runs of 2016): inactive: 58.5, 58.3, 60.8, 59.8, 68, 54, 60.9, 61.6 (2×), 60.4, 65.4, 56.7 (3×), 62.5, 35.9, 38.9, 50.4, 57, 57.6, 43.9, 52, 46.3, 37.9, 46.7, 43.3, 43.1, 39.4, 44.2, 41.7, 46.6, 45.3, 45.2, 45.5, 48.2, 62.6, 62.9, 69.6 (2×), 81, 63 (2×), 75, 74.7, 59.2, 66.3, 70.2, 72.7, 39.5, 54.7, 51.5, 65.1, 50.2, 63.7, 62.3, 69.3, 76, 67.9, 71.3, 60.6, 72.2, 62.4, 75.5, 76.5, 81.8, 64.6, 57.2, 53.5, 61.1, 52.6, 61.2, 56.8, 57.1, 58.4, 66.4, 65.6, 73.7%
growth (runs of 2017): inactive: 62.8, 60.8, 68.2, 58.7 (2×), 59.3 (2×), 46.6, 57.2 (2×), 45.9, 58 (3×), 44.8, 57.6, 52, 46.7, 52.8, 63.7, 42.4 (2×), 49.8, 43.9, 47.3, 45, 57.7, 44.2, 54.2, 43.2, 60.2, 46.4, 66.3 (2×), 54, 58.3, 55.9, 61.1, 49.7, 50.7, 53.9, 62.3, 49.1, 55.5 (2×), 43.3, 47, 46.9, 56, 49.3, 54.4 (5×), 56.7, 50.9, 45.7, 45.4, 80, 41.7, 53, 60.9, 65.2, 64.1, 49, 56.2, 62.4, 54.6, 61.7, 55.3 (2×), 60, 51.6, 65, 66, 58.1, 51.1, 49.9, 53.1, 48.1%
growth (runs of 2018): inactive: 63.7 (2×), 54, 55.3 (2×), 57.7 (2×), 58.8, 60.2 (2×), 60.1 (3×), 46.9, 49.8, 54.2, 53.8 (2×), 59.9, 54.5, 55.2 (2×), 61.8, 54.6, 50.3, 52.5 (2×), 68.5, 66.7, 59.8, 65.3, 66.5, 56.5, 65.7, 58.5 (2×), 65.1, 67, 61.9, 60, 62.2, 62, 62.7, 61.2 (2×), 56.2, 55.8, 54.3 (2×), 41.6, 49.4, 62.1, 43.6, 48.1, 51.4%
growth (runs of 2019): inactive: 51.4, 40.4, 39.2, 47.1, 56.3, 44.8 (2×), 46.6, 43.2, 38.4, 42, 48 (3×), 37.6, 35.5, 45.1, 53.4, 40.7, 67.5, 62.5, 63.7, 53.6 (2×), 58, 50.1, 41.2, 42.3, 47.6, 47, 44.2, 45.9, 43.4, 45.5, 40.9, 51.3, 43.1, 65.4, 55.8, 46.9, 45.2, 47.5, 52.5, 47.9, 49.6, 55.4%
growth (runs of 2020): inactive: 51.7, 61.4, 58, 58.2, 58.1, 50.2, 40.9, 45.8, 43.9, 47.4, 54.3, 57.1, 52.7, 62.6, 48.6, 50.7, 54.8, 55.5, 51.2, 57.8, 56, 68.1%
growth (runs of 2021): inactive: 51.7, 50.7 (2×), 55.8, 69.3, 63.6, 74.4, 50.2, 52.9, 51.5, 49.2, 61.8, 69.4, 71.1, 52.5, 46.1 (2×), 38.3, 42.2, 39.4, 36.5, 29.5, 41.5, 40.2, 34.8, 40.9, 50.1, 46.7, 37 (2×), 40.5, 37.8, 35.6, 53.9, 51.2, 42.3, 71.4, 36.6, 52.6, 36, 43.8, 31.9, 20.5, 37.6, 45.4, 24.2, 30.3, 48, 33.8%
growth (runs of 2022): active: 8.69, 9.02, -19, 4.07% and inactive: 38.9, 41.9, 11, 16.8, 41.7, 59, 46.6, 51.5, 41.2, 41.3, 30.4, 33.1, 32.9, 59.9, 82.2, 65.7, 69, 77.9, 38.1, 35.6, 36.6%
